According to PubChem BioAssay AID360 (National Center for Advancing Translational Sciences (NCATS), 2006):
Hit rate of the full screen: of about 48,000 compounds, about 550 (1.1%) were called active. Not shown: some 4% with an inconclusive outcome. Rule as the data show it: active = potency below about 15 µM; inconclusive = mostly about 16 µM to 33 µM; inactive = weaker than that. The list shows a part of the results.

What follows are compounds tested against Lysosomal acid glucosylceramidase (Homo sapiens) (UniProt P04062) (assay: Glucocerebrosidase). Settings: purified enzyme, resorufin glucoside fluorescence (screen aimed at inhibitors), 20 min; series mostly up to 77 µM.
Method in brief: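 Compounds titrated against 0.2 nM normal enzyme, 30 uM resorufin beta-D-glucopyranoside substrate, citrate/phosphate buffer with taurocholate and tween-20, pH 5.9. Reaction ran 20 min at room temperature; fluorescence (Ex 548/Em 600) gave AC50.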
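Also: the screen sought inhibitors.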
Potency is read from the fitted curve at half-maximal effect.

Sequence of UniProt P04062 (P04062 whole entry, looked up): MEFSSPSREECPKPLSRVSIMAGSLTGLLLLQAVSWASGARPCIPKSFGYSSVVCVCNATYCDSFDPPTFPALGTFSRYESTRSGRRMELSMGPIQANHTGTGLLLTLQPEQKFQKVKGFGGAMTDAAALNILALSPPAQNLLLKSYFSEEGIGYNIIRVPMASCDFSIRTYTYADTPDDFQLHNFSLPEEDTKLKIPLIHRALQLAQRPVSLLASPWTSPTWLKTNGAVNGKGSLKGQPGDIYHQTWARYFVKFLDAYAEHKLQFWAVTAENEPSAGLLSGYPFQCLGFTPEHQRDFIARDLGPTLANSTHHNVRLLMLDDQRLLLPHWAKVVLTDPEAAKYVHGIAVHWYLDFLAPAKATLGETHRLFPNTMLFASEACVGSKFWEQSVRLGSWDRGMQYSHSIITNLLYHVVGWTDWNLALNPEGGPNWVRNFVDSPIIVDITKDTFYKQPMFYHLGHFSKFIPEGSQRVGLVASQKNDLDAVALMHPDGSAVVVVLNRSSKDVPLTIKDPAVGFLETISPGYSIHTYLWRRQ

Compound	Potency
COc1ccc(CNc2ccc(S(N)(=O)=O)cc2)c(OC)c1OC	inactive: > 76.9 µM
COc1ccccc1NC(=O)CN1CCN(c2ccccc2F)CC1	inactive: > 76.9 µM
Cc1onc(-c2ccccc2)c1C(=O)N1CCN(CCc2ccccc2)CC1	inactive: > 76.9 µM
Cc1noc(C)c1C(=O)NC1CCCc2ccccc21 (centres undefined)	inactive: > 76.9 µM
O=C(Cn1[nH]c(=O)c2ccccc2c1=O)NCc1cccnc1	inactive: > 76.9 µM
CCOC(=O)CSc1nnc(-c2cccnc2)n1Cc1ccccc1	inactive: > 76.9 µM
O=C(CCSc1nnc2scc(-c3ccccc3)n12)Nc1nc(-c2ccccc2)ns1	inactive: > 76.9 µM
Cc1oc(-c2ccc3c(c2)OCCO3)cc1C(=O)NC(CCC(=O)O)C(=O)O (centres undefined)	inactive: > 76.9 µM
CCOc1ccc(-c2nnc3ccc(SCC(=O)N4CCN(c5ccccc5)CC4)nn23)cc1	inactive: > 76.9 µM
CCc1c(C)sc(NC(=O)c2cnn3cccnc23)c1C#N	inactive: > 76.9 µM
Cc1nnc(NC(=O)CN2C(=O)c3ccccc3S2(=O)=O)s1	inactive: > 76.9 µM
COc1ccccc1N1CCN(C(=O)c2ccc3nc(-c4ccco4)c(-c4ccco4)nc3c2)CC1	inactive: > 76.9 µM
CCOC(=O)Cn1c(=N)n(Cc2ccccc2)c2ccccc21	inactive: > 76.9 µM
CCOC(=O)c1ccc2c(c1)nc(SCC(=O)N1CCCCC1)n2CC	inactive: > 76.9 µM
Cc1nc2ccc(S(=O)(=O)NCC(=O)N3CCN(c4ccccn4)CC3)cc2s1	inactive: > 76.9 µM
O=C(O)c1ccc(C2SCC(=O)N2Cc2ccccc2)cc1 (centres undefined)	inactive: > 76.9 µM
CCOc1cc(C2Nc3ccccc3C(=O)N2c2ccccc2)ccc1O (centres undefined)	inactive: > 76.9 µM
C/C(=C1/SC(N2CCOCC2)=NC1=O)c1ccc(Cl)cc1	inactive: > 76.9 µM
CCCn1c(C(O)c2ccc3c(c2)OCO3)nc2ccccc21 (centres undefined)	inactive: > 76.9 µM
Cc1cc(-c2cccs2)c2c(n1)sc1c(=O)[nH]c(=O)[nH]c12	inactive: > 76.9 µM
O=C(CSc1nc(-c2ccccc2)cc(=O)[nH]1)N1CCOCC1	inactive: > 76.9 µM
Cc1ccc(OCc2nnc(SCc3cc(=O)[nH]c4ccccc34)o2)cc1	inactive
CCOC(=O)c1[nH]c(C)c(C(=O)Nc2ccc3c(c2)OCCO3)c1C	inactive: > 76.9 µM

Compound	Potency
CCN(CC)c1ccc(NC(=O)CCCCCN2C(=O)c3ccccc3C2=O)cc1	inactive: > 76.9 µM
CC1(C)CC2CC(C)(CN2C(=O)COC(=O)Cn2[nH]c(=O)c3ccccc3c2=O)C1 (centres undefined)	inactive: > 76.9 µM
COC(=O)c1ccc(NC(=O)C2CCCN2S(=O)(=O)c2ccc(F)cc2)cc1 (centres undefined)	inactive: > 76.9 µM
O=C(c1ccco1)[C@@H]1[C@@H]2C(=O)N(c3ccc(F)cc3)C(=O)[C@@H]2C2c3ccccc3C=CN21 (some centres undefined)	inactive: > 76.9 µM
CCOC(=O)C1CCCN(C(=O)c2ccc(CS(=O)(=O)Cc3ccccc3C)o2)C1 (centres undefined)	inactive: > 76.9 µM
CCC(=O)Nc1cc(-c2nnc(OC)c3ccccc23)ccc1N1CCOCC1	inactive: > 76.9 µM
Cc1cccc2cc(C#N)c(NCCNC(=O)NC3CCCCC3)nc12	inactive: > 76.9 µM
CN(Cc1ccccc1)Cc1nc2c([nH]1)c(=O)n(C)c(=O)n2C	inactive: > 76.9 µM
O=C(NCc1cccs1)C1CCN(c2nccs2)CC1	inactive: > 76.9 µM
c1ccc(-c2nn3c(-c4ccccc4)nnc3s2)cc1	inactive: > 76.9 µM
Cc1cc(C(=O)c2cccs2)c(N)s1	inactive: > 76.9 µM
COc1ccc(C2C(C(=O)c3sc(C)nc3C)=C(O)C(=O)N2CCN2CCOCC2)cc1 (centres undefined)	inactive: > 76.9 µM
CCc1c(C)sc(NC(=O)c2cc(-c3cc(OC)ccc3OC)on2)c1C#N	inactive: > 76.9 µM
CN(C)S(=O)(=O)CC12CCC(CC1=O)C2(C)C (centres undefined)	inactive: > 76.9 µM
c1ccc(-n2nc3c(ccc4cnnc43)[nH]2)cc1	inactive
CSc1nc(C)cc(OCNC(=O)c2cccs2)n1	inactive: > 76.9 µM
CCOc1ccc(NC(=O)CN(C)c2nnnn2-c2ccccc2)cc1OCC	inactive: > 76.9 µM
CCCCn1c(NC(=O)c2ccccc2)c(C#N)c2nc3ccccc3nc21	inactive: > 76.9 µM
COc1ccc(OC)c(C2C(C#N)=C(N)Oc3c2c(C)nn3-c2cccc(Cl)c2)c1 (centres undefined)	inactive: > 76.9 µM
Cc1cc(-n2c(C)cc(C(=O)COC(=O)CN=C3NS(=O)(=O)c4ccccc43)c2C)no1	inactive: > 76.9 µM
CCn1cc(C(=O)N2CC(C)CC(C)C2)c(=O)c2cc(S(=O)(=O)N3CCOCC3)ccc21 (centres undefined)	inactive: > 76.9 µM
CCOC(=O)c1ccc(NC(=O)C2C3CCC(C3)C2C(=O)O)cc1 (centres undefined)	inactive: > 76.9 µM
Fc1cccc(Cl)c1Cn1nnc2c(N3CCC4(CC3)OCCO4)ncnc21	inactive: > 76.9 µM

Compound	Potency
CCOC(=O)N1CCN(C2=NC3(CCCCC3)C(C#N)C(=O)N2)CC1 (centres undefined)	inactive: > 76.9 µM
O=C(CSc1nc(-c2ccco2)cc(C(F)(F)F)n1)NCCc1ccccc1	inactive: > 76.9 µM
Cc1ccc(S(=O)(=O)N2CCOCC2)cc1C(=O)Nc1c(C)n(C)n(-c2ccccc2)c1=O	inactive: > 76.9 µM
CS(=O)(=O)N(CC(=O)NCCSc1ccc(Cl)cc1)c1ccc2c(c1)OCO2	inactive: > 76.9 µM
Cn1c(=O)n(CCc2ccccc2)c(=O)c2c1nc1n2CCCN1Cc1ccccc1	inactive
COC(=O)Cn1cnc2c(nnn2Cc2ccc(Cl)cc2)c1=O	inactive: > 76.9 µM
Cc1ccc(C(=O)N(CN2CCCC2=O)c2ccc(F)cc2)cc1C	inactive: > 76.9 µM
CCOC(=O)N1CCN(c2c(-c3ccc(C)cc3)c(=O)c2=O)CC1	inactive: > 76.9 µM
Cc1ccc(CNC2=NCCCCC2)n1C	inactive: > 76.9 µM
Cc1ccc(S(=O)(=O)Cc2ccc(C(=O)NCc3ccc4c(c3)OCO4)o2)cc1	inactive: > 76.9 µM
COc1ccc(NC(=O)C2C3C=CC(C3)C2C(=O)NCc2ccco2)cc1 (centres undefined)	inactive: > 76.9 µM
Cc1ccc(/C(O)=C2\C(=O)C(=O)N(CCCN(C)C)C2c2ccccn2)cc1 (centres undefined)	inactive: > 76.9 µM
CC(C)OC(=O)CSc1nnc2n1C(C)(C)Cc1ccccc1-2	inactive: > 76.9 µM
COc1ccc(CC(CC(=O)O)C(=O)Nc2ccc(OC)cc2)cc1 (centres undefined)	inactive: > 76.9 µM
Cc1nnc(SCCn2c(N3CCN(Cc4ccccc4)CC3)nc3c2c(=O)[nH]c(=O)n3C)s1	inactive: > 76.9 µM
CCC(C)C(NC(=O)c1ccccc1NC(=O)c1ccco1)C(=O)O (centres undefined)	inactive: > 76.9 µM
CCCC(=O)Nc1ccc(Cl)c(NC(=O)CC)c1	inactive: > 76.9 µM
O=C(N1CCCCCC1)N1CCN(S(=O)(=O)N2CCOCC2)CC1	inactive: > 76.9 µM
Cc1ccc(-c2noc(CCC(=O)N(C)c3ccccc3C)n2)cc1	inactive: > 76.9 µM
CCn1cc(C2Nc3ccccc3C(=O)N2O)c(C)n1 (centres undefined)	inactive: > 76.9 µM
CC(=O)Nc1cccc(-c2cnc3ccccc3n2)c1	inactive: > 76.9 µM
Cc1nc2ncnn2c(C)c1CCC(=O)N1CCN(c2ccccn2)CC1	inactive: > 76.9 µM
COCC(C)n1c(C)cc(C(=O)COC(=O)c2oc3ccccc3c2C)c1C (centres undefined)	inactive: > 76.9 µM

Compound	Potency
Cc1ccnc(SCC(=O)Nc2oc(-c3ccccc3)c(-c3ccccc3)c2C#N)n1	inactive: > 76.9 µM
CC(=O)NC1CCN(C(=O)N2CCCC2)CC1	inactive: > 76.9 µM
COc1cc(-c2nnc3sc(-c4ccco4)nn23)cc(OC)c1OC	inactive: > 76.9 µM
Cc1cc(N2CCCC2)n2nc(C)c(-c3ccccc3)c2n1	active: 7.9 µM
O=S1(=O)CC(NCc2ccccc2)C(Nc2ccccc2)C1 (centres undefined)	inactive: > 76.9 µM
CCSc1oc(-c2ccco2)nc1S(=O)(=O)c1ccc(F)cc1	inactive: > 76.9 µM
COc1ccc(C(c2nnnn2Cc2cccs2)N2CCC(C(N)=O)CC2)c(OC)c1 (centres undefined)	inactive: > 76.9 µM
Cc1cc2c(c(=O)n1CCCn1ccnc1)C(c1ccco1)C(C#N)=C(N)O2 (centres undefined)	inactive: > 76.9 µM
COC(=O)c1ccc(C)c(NC(=O)C2COc3ccccc3O2)c1 (centres undefined)	inactive: > 76.9 µM
COc1ccc(-n2nnnc2SCC(=O)c2ccc3c(c2)OCCO3)c(OC)c1	inactive: > 76.9 µM
CCCC(=O)Nc1cc(=O)[nH]c2ncnn12	inactive: > 76.9 µM
Cc1cn(C2CC3OCC3O2)c(=O)[nH]c1=O (centres undefined)	inactive: > 76.9 µM
CCn1nnnc1SCCSc1nnnn1CC	inactive: > 76.9 µM
CCCc1cc(=O)[nH]c(SCc2cc(C(=O)OC)c(C)o2)n1	inactive: > 76.9 µM
Cc1ccc(-n2c(C)cc(C(=O)COC(=O)c3c(C)noc3C)c2C)cc1	inactive: > 76.9 µM
Cc1nn(-c2ccccc2)c2sc(C(=O)N3CCc4ccccc4C3)cc12	inactive: > 76.9 µM
Cc1nc(/C=[N+](\[O-])C(C)(C)/C=N/O)n(O)c1C	inactive: > 76.9 µM
CCN(c1ccccc1)S(=O)(=O)c1ccc2[nH]cc(C(=O)N3CCOCC3)c(=O)c2c1	inactive: > 76.9 µM
CCCOn1c(OCC(C)C)nc2ccccc2c1=O	inactive: > 76.9 µM
COC(=O)C(C)n1cnc2c(nnn2Cc2ccc(Cl)cc2)c1=O (centres undefined)	inactive: > 76.9 µM
